Laboratory results reported in the supplement of paper PMC4967469.

Columns and labels:
Assay in all cases: Viability of human cancer cell lines after 72 h of drug (GDSC screen)
PIK-93 = compound: CC(=O)Nc1nc(C)c(-c2ccc(Cl)c(S(=O)(=O)NCCO)c2)s1 [PIK-93]; conditions: top dose 20 µM
Experimental: (§1)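 Human cancer cell lines in 384-well plates, medium with 10% serum, drug for 72 h over a 256-fold dose range (nine 2-fold or five 4-fold steps up to the top dose). Adherent lines were fixed and stained with the nucleic acid dye Syto60, suspension lines read with resazurin; signal relative to control wells, capped at 0 and 100%. One two-parameter sigmoid per drug and line, fitted in a mixed model over all curves with the slope shared within a line.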

piperlongumine = compound: COc1cc(/C=C/C(=O)N2CCC=CC2=O)cc(OC)c1OC [piperlongumine]; conditions: top dose 10 µM
Experimental: as §1

ABT-263 = compound: CC1(C)CCC(c2ccc(Cl)cc2)=C(CN2CCN(c3ccc(C(=O)NS(=O)(=O)c4ccc(N[C@H](CCN5CCOCC5)CSc5ccccc5)c(S(=O)(=O)C(F)(F)F)c4)cc3)CC2)C1 [ABT-263]; conditions: top dose 2 µM; top dose inferred
Experimental: as §1

GW 441756 = compound: Cn1cc(/C=C2\C(=O)Nc3cccnc32)c2ccccc21 [GW 441756]; conditions: top dose 2 µM; top dose inferred
Experimental: as §1

Cell Line	AUC (PIK-93)	IC50 (PIK-93) [nM]	AUC (piperlongumine)	IC50 (piperlongumine) [nM]	AUC (ABT-263)	IC50 (ABT-263) [nM]	AUC (GW 441756)	IC50 (GW 441756) [nM]
CaR-1 (large intestine, adherent)	0.929	> 20000	0.783	6720	0.963	> 2000	0.972	> 2000
CAL-29 (bladder, adherent)	0.685	4290	0.586	1100	0.901	> 2000	0.984	> 2000
H3118 (head and neck, adherent)	0.778	8900	0.749	3500	0.922	> 2000	0.968	> 2000
NCI-H2342 (lung adenocarcinoma, adherent)	0.984	> 20000	0.787	4840	0.827		0.981	> 2000
H3255 (lung adenocarcinoma, adherent)	0.906	> 20000	0.825	7580	0.948	> 2000	0.982	> 2000
OV-90 (ovary, adherent)	0.945	> 20000	0.862	> 10000	0.765	937	0.956	> 2000
WM-115 (melanoma, adherent)	0.689	4810	0.762	4340	0.603	256	0.972	> 2000
HuP-T3 (pancreas, adherent)	0.826	15900	0.755	4100	0.965	> 2000	0.919	> 2000
NCI-H28 (mesothelioma, adherent)	0.919	> 20000	0.716	3150	0.977	> 2000	0.98	> 2000
HCC1419 (breast, adherent)	0.876	> 20000	0.953	> 10000	0.842	> 2000	0.905	> 2000
RERF-LC-MS (lung adenocarcinoma, adherent)	0.786	8870	0.814	5650	0.987	> 2000	0.96	> 2000
MFE-296 (endometrium, adherent)	0.893	> 20000	0.709	2560	0.983	> 2000	0.959	> 2000
JHH-7 (liver, adherent)	0.955	> 20000	0.676	1870	0.953	> 2000	0.939	> 2000
NCI-H1048 (small cell lung carcinoma, adherent)	0.224	219	0.842	6010	0.729	516	0.987	> 2000
OE21 (oesophagus, adherent)	0.876	> 20000	0.739	3990	0.867	> 2000	0.934	> 2000
BT-483 (breast, adherent)	0.838	> 20000	0.888	> 10000	0.916	> 2000	0.976	> 2000

Cell Line	AUC (PIK-93)	IC50 (PIK-93) [nM]	AUC (piperlongumine)	IC50 (piperlongumine) [nM]	AUC (ABT-263)	IC50 (ABT-263) [nM]	AUC (GW 441756)	IC50 (GW 441756) [nM]
RVH-421 (melanoma, adherent)	0.77	10500	0.696	2740	0.903	> 2000	0.97	> 2000
SAS (head and neck, adherent)	0.889	> 20000	0.701	2480	0.962	> 2000	0.972	> 2000
MDA-MB-453 (breast, adherent)	0.606	2520	0.787	4890	0.981	> 2000	0.963	> 2000
RO82-W-1 (thyroid, adherent)	0.937	> 20000	0.825	8350	0.966	> 2000	0.983	> 2000
PFSK-1 (medulloblastoma, adherent)	0.807	11000	0.695	2290	0.791	959	0.853	1710
RCC-FG2 (kidney, adherent)	0.872	> 20000	0.784	5550	0.901	> 2000	0.86	> 2000
H2373 (mesothelioma, adherent)	0.847	> 20000	0.777	5120	0.983	> 2000	0.875	> 2000
C-4-I (cervix, adherent)	0.958	> 20000	0.644	1620	0.944	> 2000	0.897	> 2000
NCI-H810 (large cell lung carcinoma, adherent)	0.851	14300	0.716	2470	0.976	> 2000	0.988	> 2000
PANC-04-03 (pancreas, adherent)	0.939	> 20000	0.778	6950	0.961	> 2000	0.978	> 2000
NCI-H1703 (lung adenocarcinoma, adherent)	0.859	> 20000	0.732	3380	0.879	> 2000	0.659	383
DBTRG-05MG (glioma, adherent)	0.866	> 20000	0.786	5120	0.769	887	0.977	> 2000
HuCCT1 (biliary tract, adherent)	0.752	7330	0.66	1840	0.983	> 2000	0.982	> 2000
MDA-MB-415 (breast, adherent)	0.897	> 20000	0.829	9320	0.833	1950	0.909	> 2000
JEG-3 (urogenital system, adherent)	0.991	> 20000	0.749	2980	0.981	> 2000	0.99	> 2000

The IC50 comes from the fitted curve, where viability falls to half of the control; where the fit passes the top or lowest dose, that dose stands as a limit. For AUC the same curve is integrated over the 256-fold range of doses and scaled to a fraction: 1 means no effect, lower means more sensitive. For some of these results: Any top dose called inferred is not printed in the source and was worked back from the curve model.
